Not every detail of the peptide structures is certain; ends, links or a residue may be inferred. For part of these data: At least one structure is not confirmed: it was looked up by name or label, or the drawing left a doubt. Some entries repeat one wording, which the source may state once for all of them. For part of these data: The name of at least one read-out is uncertain. Square brackets hold non-standard residues; d marks the D form. Peptide text beside a SMILES is read from it. * marks the point of attachment. X1 = O=C(O)c1cc(C(=O)*)ccc1-c1c2ccc(=O)cc-2oc2cc(O)ccc12; Phe(4-NO2) = N[C@@H](Cc1ccc([N+](=O)[O-])cc1)C(=O)O
Columns and labels:
[1] = target: T1, GRF receptors ([^125 I-Tyr^10 ]hGRF(1-44)NH2 binding sites in rat adenopituitary) (Rattus norvegicus, UniProt Q02644); test: Competitive binding assay with [^125 I-Tyr^10 ]hGRF(1-44)NH2 on anterior pituitary homogenates; settings: for Hill coef. / Relative affinity: Table 11; for Relative affinity: ratio IC50 of hGRF(1-29)NH2 /IC50 analogue; for biological activity compared to that of native GRF: rat adenopituitary
T1 construct: from tissue; host or cells: rat anterior pituitary homogenate
T1 sequence (Q02644 23-423 isoform Q02644-2 limits assumed): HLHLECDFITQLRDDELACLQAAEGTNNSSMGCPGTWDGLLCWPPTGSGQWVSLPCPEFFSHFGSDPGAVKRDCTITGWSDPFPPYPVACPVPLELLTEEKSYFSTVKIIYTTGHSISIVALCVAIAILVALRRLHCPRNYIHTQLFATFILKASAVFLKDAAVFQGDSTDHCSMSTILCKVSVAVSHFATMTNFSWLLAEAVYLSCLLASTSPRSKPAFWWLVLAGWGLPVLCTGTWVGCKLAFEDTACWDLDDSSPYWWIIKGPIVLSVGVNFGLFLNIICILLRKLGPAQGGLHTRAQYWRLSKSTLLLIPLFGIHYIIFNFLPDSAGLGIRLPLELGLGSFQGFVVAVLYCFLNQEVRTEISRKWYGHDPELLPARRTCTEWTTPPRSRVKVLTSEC
Protocol: The binding of [^125 I-Tyr^10 ]hGRF(1-44)NH2 was performed on anterior pituitary homogenates as previously described (Gaudreau P. et al., J. Biol. Chem., 1992, 35:1864-1869). Briefly, anterior pituitaries (pit.) were dissected out, rinsed and homogenized for 8 sec with a Micro Ultrasonic Cell Disrupter™, in ice-cold 50 mM Tris-HCl buffer, pH 7.4, containing 5 mM MgCl2 and 5 mM EDTA (1 pit./0.5 ml). These homogenates were used immediately. Competition studies were performed using 35-50 pM [^125 I-Tyr^10 ]hGRF(1-44)NH2 as radio-ligand,50 μl of homogenate (70 to 75 μg of protein), and increasing concentrations of Nε-CF-[Lys^31 ]hGRF or other GRF analogues (0-1000 nM) or with 2.4 μM rGRF(1-29)NH2 for determination of non-specific binding, in a total volume of 300 μl of Tris-HCl buffer, pH 7.4, containing 5 mM EDTA, 5 mM MgCl2 and 0.42% BSA. Incubations were carried out at 23° C. for 60 min and stopped by centrifugation (12,000 g, 5 min, at 4° C.). The radioactivity content in the pellet was measured by gamma counting. The affinity of hGRF(1-29)NH2 was tested in each experiment to assess the validity of the assay and determine the relative affinity of the analogues. […] The Hill values indicate that all these peptides bind to the high and low affinity GRF binding sites found in the anterior pituitary.

[2] = target: T2, GRF receptor (adenylate cyclase activity in rat adenopituitary) (Rattus norvegicus, UniProt Q02644); test: Adenylate cyclase assay on anterior pituitary homogenates (cAMP by HPLC); assay type: biochemical; settings: for Relative activity: Table 12, ratio EC50 of hGRF(1-29)NH2 /EC50 analogue
T2 construct: from tissue; host or cells: rat anterior pituitary homogenate
T2 sequence (Q02644 23-423 isoform Q02644-2 limits assumed): T1 sequence (Q02644 23-423 isoform Q02644-2 limits assumed)
Protocol: The adenylate cyclase activity Nε-CF-[Lys^31 ]hGRF was performed on anterior pituitary homogenates as previously described (Lefrangois L. and Gaudreau P., J. Chromatogr., 1993, 619:116-120). Briefly, anterior pituitaries (pit.) were dissected out, rinsed and homogenized for 8 sec with a Micro Ultrasonic Cell Disrupter™, in ice-cold 20 mM Tris-HCl buffer (pH 7.5) containing 2 mM MgCl2 and 250 mM sucrose (1 pit./0.5 ml).
Samples of anterior pituitary homogenates (30-40 μg protein) were incubated in 1.5 ml Eppendorf™ tubes with 30 mM Tris-HCl, 5 mM MgCl2, 0.5 mM EGTA, containing 0.5 mM ATP, 1 mM IBMX, 10 μM GTP and an ATP regenerating system consisting of 2 mM creatine phosphate, 0.1 mg/ml creatine kinase and, 0.1 mg/ml myokinase in a final volume of 120 μl. Incubations were initiated by adding 20 μl of the homogenate to the reaction mixture which had previously been equilibrated at 37° C. for 2 min. The reactions were carried out for 8 min at 37° C. and stopped by heating the samples in boiling water for 4 min. Samples were centrifuged (12000 g, 5 min, 4° C.) and supernatants were filtered through 0.45 μm Millex HV4 ™ filters and transferred to autosampler vials for HPLC quantification of cAMP.

Which Hill coef. [1] does the source give for `CC[C@H](C)[C@H](NC(=O)[C@H](C)NC(=O)[C@H](CC(=O)O)NC(=O)[C@@H](C)NC(=O)[C@@H](N)Cc1ccc(O)cc1)C(=O)N[C@@H](Cc1ccccc1)C(=O)N[C@H](C(=O)N[C@@H](CC(N)=O)C(=O)N[C@@H](CO)C(=O)N[C@H](Cc1ccc(O)cc1)C(=O)N[C@@H](CCCNC(=N)N)C(=O)N[C@@H](CCCCN)C(=O)N[C@H](C(=O)N[C@@H](CC(C)C)C(=O)N[C@H](C)C(=O)N[C@@H](CCC(N)=O)C(=O)N[C@@H](CC(C)C)C(=O)N[C@@H](CO)C(=O)N[C@@H](C)C(=O)N[C@@H](CCCNC(=N)N)C(=O)N[C@H](CCCCN)C(=O)N[C@@H](CC(C)C)C(=O)N[C@@H](CC(C)C)C(=O)N[C@@H](CCC(N)=O)C(=O)N[C@@H](CC(=O)O)C(=O)N[C@H](C(=O)N[C@@H](CCSC)C(=O)N[C@@H](CO)C(=O)N[C@@H](CCCNC(=N)N)C(N)=O)[C@@H](C)CC)C(C)C)[C@@H](C)O` [D-Ala^2, D-Tyr^10, D-Ala^15, D-Lys^21] (H-Y[dA]DAIFTNS[dY]RKVL[dA]QLSAR[dK]LLQDIMSR-NH2) here?
The Hill coef. was 0.68 ± 0.03.

What about the Relative affinity [1] of the same molecule?
Its Relative affinity is 8 ± 3%.

What about the “biological activity compared to that of native GRF” value [1] of the same molecule?
Its value is “preserved or increased”.

And the Relative activity [2]?
The Relative activity was 27 ± 10%.

For `CC[C@H](C)[C@H](NC(=O)[C@H](C)NC(=O)[C@H](CC(=O)O)NC(=O)[C@@H](C)NC(=O)[C@@H](N)Cc1ccc(O)cc1)C(=O)N[C@@H](Cc1ccccc1)C(=O)N[C@H](C(=O)N[C@@H](CC(N)=O)C(=O)N[C@@H](CO)C(=O)N[C@H](Cc1ccc(O)cc1)C(=O)N[C@@H](CCCNC(=N)N)C(=O)N[C@@H](CCCCN)C(=O)N[C@H](C(=O)N[C@@H](CC(C)C)C(=O)N[C@H](C)C(=O)N[C@@H](CCC(N)=O)C(=O)N[C@@H](CC(C)C)C(=O)N[C@@H](CO)C(=O)N[C@@H](C)C(=O)N[C@@H](CCCNC(=N)N)C(=O)N[C@@H](CCCCN)C(=O)N[C@@H](CC(C)C)C(=O)N[C@@H](CC(C)C)C(=O)N[C@@H](CCC(N)=O)C(=O)N[C@@H](CC(=O)O)C(=O)N[C@H](C(=O)N[C@@H](CCSC)C(=O)N[C@@H](CO)C(=O)N[C@@H](CCCNC(=N)N)C(N)=O)[C@@H](C)CC)C(C)C)[C@@H](C)O` [D-Ala^2, D-Tyr^10, D-Ala^15] (H-Y[dA]DAIFTNS[dY]RKVL[dA]QLSARKLLQDIMSR-NH2), which Hill coef. [1] is on record?
Its Hill coef. is 0.59 ± 0.07.

What about the Relative affinity [1] of the same molecule?
Its Relative affinity is 18 ± 1%.

What about the “biological activity compared to that of native GRF” value [1] of the same molecule?
The value was “preserved or increased”.

What about the Relative activity [2] of the same molecule?
The Relative activity was 21 ± 10%.

Which Hill coef. [1] does the source give for `CC[C@H](C)[C@H](NC(=O)[C@H](C)NC(=O)[C@H](CC(=O)O)NC(=O)[C@H](C)NC(=O)[C@@H](N)Cc1ccc(O)cc1)C(=O)N[C@@H](Cc1ccccc1)C(=O)N[C@H](C(=O)N[C@H](CC(N)=O)C(=O)N[C@@H](CO)C(=O)N[C@@H](Cc1ccc(O)cc1)C(=O)N[C@@H](CCCNC(=N)N)C(=O)N[C@@H](CCCCN)C(=O)N[C@H](C(=O)N[C@@H](CC(C)C)C(=O)NCC(=O)N[C@@H](CCC(N)=O)C(=O)N[C@@H](CC(C)C)C(=O)N[C@@H](CO)C(=O)N[C@@H](C)C(=O)N[C@@H](CCCNC(=N)N)C(=O)N[C@@H](CCCCN)C(=O)N[C@H](CC(C)C)C(=O)N[C@@H](CC(C)C)C(=O)N[C@@H](CCC(N)=O)C(=O)N[C@@H](CC(=O)O)C(=O)N[C@H](C(=O)N[C@@H](CCSC)C(=O)N[C@@H](CO)C(=O)N[C@@H](CCCNC(=N)N)C(N)=O)[C@@H](C)CC)C(C)C)[C@@H](C)O` [D-Ans^8, D-Leu^22] here?
The Hill coef. was 0.48 ± 0.04.

And the Relative affinity [1]?
The Relative affinity was 49 ± 33%.

What about the “biological activity compared to that of native GRF” value [1] of the same molecule?
The value was “preserved or increased”.

What about the Relative activity [2] of the same molecule?
Its Relative activity is 55 ± 36%.

For `CC[C@H](C)[C@H](NC(=O)[C@H](C)NC(=O)[C@H](CC(=O)O)NC(=O)[C@H](C)NC(=O)[C@@H](N)Cc1ccc(O)cc1)C(=O)N[C@@H](Cc1ccccc1)C(=O)N[C@H](C(=O)N[C@@H](CC(N)=O)C(=O)N[C@@H](CO)C(=O)N[C@@H](Cc1ccc(O)cc1)C(=O)N[C@@H](CCCNC(=N)N)C(=O)N[C@@H](CCCCN)C(=O)N[C@H](C(=O)N[C@@H](CC(C)C)C(=O)NCC(=O)N[C@@H](CCC(N)=O)C(=O)N[C@@H](CC(C)C)C(=O)N[C@@H](CO)C(=O)N[C@@H](C)C(=O)N[C@@H](CCCNC(=N)N)C(=O)N[C@@H](CCCCN)C(=O)N[C@@H](CC(C)C)C(=O)N[C@@H](CC(C)C)C(=O)N[C@@H](CCC(N)=O)C(=O)N[C@@H](CC(=O)O)C(=O)N[C@H](C(=O)N[C@@H](CCSC)C(=O)N[C@@H](CO)C(=O)N[C@@H](CCCNC(=N)N)C(=O)NCCCCCCCC(=O)N[C@@H](CS)C(N)=O)[C@@H](C)CC)C(C)C)[C@@H](C)O` [Octanoyl^30, Cys^31, [octanoyl^30,Cys^31] hGRF(1-29)NH2], which Hill coef. [1] is on record?
Its Hill coef. is 0.43 ± 0.14.

And the Relative affinity [1]?
The Relative affinity was 35 ± 11%.

What about the “biological activity compared to that of native GRF” value [1] of the same molecule?
The value was “preserved or increased”.

For `CC[C@H](C)[C@H](NC(=O)[C@H](C)NC(=O)[C@H](CC(=O)O)NC(=O)[C@H](C)NC(=O)[C@@H](N)Cc1ccc(O)cc1)C(=O)N[C@@H](Cc1ccccc1)C(=O)N[C@H](C(=O)N[C@@H](CC(N)=O)C(=O)N[C@@H](Cc1ccc([N+](=O)[O-])cc1)C(=O)N[C@@H](Cc1ccc(O)cc1)C(=O)N[C@@H](CCCNC(=N)N)C(=O)N[C@@H](CCCCN)C(=O)N[C@H](C(=O)N[C@@H](CC(C)C)C(=O)NCC(=O)N[C@@H](CCC(N)=O)C(=O)N[C@@H](CC(C)C)C(=O)N[C@@H](CO)C(=O)N[C@@H](C)C(=O)N[C@@H](CCCNC(=N)N)C(=O)N[C@@H](CCCCN)C(=O)N[C@@H](CC(C)C)C(=O)N[C@@H](CC(C)C)C(=O)N[C@@H](CCC(N)=O)C(=O)N[C@@H](CC(=O)O)C(=O)N[C@H](C(=O)N[C@@H](CCSC)C(=O)N[C@@H](CO)C(=O)N[C@@H](CCCNC(=N)N)C(N)=O)[C@@H](C)CC)C(C)C)[C@@H](C)O` [npa^9, [4'-nitro-phenylanalylalanine^9]hGRF(1-29)NH2] (H-YADAIFTN[Phe(4-NO2)]YRKVLGQLSARKLLQDIMSR-NH2), which “affinity for adenopituitary GRF receptors (in words)” value [1] is on record?
Its value is “high affinity”.

Which “affinity for adenopituitary GRF receptors (in words)” value [1] does the source give for `CC[C@H](C)[C@H](NC(=O)[C@H](C)NC(=O)[C@H](CC(=O)O)NC(=O)[C@H](C)NC(=O)[C@@H](N)Cc1ccc(O)cc1)C(=O)N[C@@H](Cc1ccccc1)C(=O)N[C@H](C(=O)N[C@@H](CC(N)=O)C(=O)N[C@@H](CO)C(=O)N[C@@H](Cc1ccc([N+](=O)[O-])cc1)C(=O)N[C@@H](CCCNC(=N)N)C(=O)N[C@@H](CCCCN)C(=O)N[C@H](C(=O)N[C@@H](CC(C)C)C(=O)NCC(=O)N[C@@H](CCC(N)=O)C(=O)N[C@@H](CC(C)C)C(=O)N[C@@H](CO)C(=O)N[C@@H](C)C(=O)N[C@@H](CCCNC(=N)N)C(=O)N[C@@H](CCCCN)C(=O)N[C@@H](CC(C)C)C(=O)N[C@@H](CC(C)C)C(=O)N[C@@H](CCC(N)=O)C(=O)N[C@@H](CC(=O)O)C(=O)N[C@H](C(=O)N[C@@H](CCSC)C(=O)N[C@@H](CO)C(=O)N[C@@H](CCCNC(=N)N)C(N)=O)[C@@H](C)CC)C(C)C)[C@@H](C)O` [npa^10, [4'-nitro-phenylalanine^10]hGRF(1-29)NH2] (H-YADAIFTNS[Phe(4-NO2)]RKVLGQLSARKLLQDIMSR-NH2) here?
Its value is “high affinity”.

For “H-YADAIFTNSYRKVLGQLSARKLLQDIMSRQK(X1)GESNQERGARARL-NH2 [Nε-5-carboxyfluoresceinyl-[Lys^31]hGRF(1-44)NH2]”, which IC50 ([2]; Table 5, 50% of maximal cAMP accumulation induced by 1 μM hGRF(1-29)NH2, mean±SD of 2 experiments (analogue), mean±SE of 10 (hGRF(1-29)NH2)) is on record?
Its IC50 is 67 ± 24 nM.

— US5854216A, “Marker for growth hormone-releasing factor receptors” (Universite de Montreal, priority 1996, dated 1998)
